Experimental findings from paper PMC7819943, “Rice protein-binding microarrays: a tool to detect cis-acting elements near promoter regions in rice” are described below.

This is one part of the list.

The target of this experiment is T1, OsWOX13 (Oryza sativa, UniProt Q5QMM3 1-267).
T1 sequence: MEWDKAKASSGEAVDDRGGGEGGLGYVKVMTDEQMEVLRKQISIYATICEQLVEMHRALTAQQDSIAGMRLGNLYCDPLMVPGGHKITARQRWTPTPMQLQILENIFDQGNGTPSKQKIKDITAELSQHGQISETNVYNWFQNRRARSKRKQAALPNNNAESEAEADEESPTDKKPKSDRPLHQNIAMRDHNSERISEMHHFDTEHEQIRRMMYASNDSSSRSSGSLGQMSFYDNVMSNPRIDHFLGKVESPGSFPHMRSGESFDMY
Kind of experiment: protein-binding microarray (RPBM); PBS, 2% BSA, 51.3 ng/ul salmon testes DNA, 50 uM zinc acetate, 200 nM TF, 25 C, 1 h; high values mean tight binding. To be noted: protein: recombinant; tags: N-terminal polyhistidine and DsRed monomer fusion (pET32a); label: CyDye5-dUTP incorporated in the synthesized complementary strand; 3' TTTTT single-stranded linker to array surface; dsDNA, one strand shown. Put shortly:
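Binding signal is reported as fluorescence intensity per feature (arbitrary units) from an Axon 4000B scanner. Incubation used 200 nM of each Ni–NTA-purified, N-terminally polyhistidine- and DsRed-fused transcription factor from E. coli BL21-CodonPlus on a double-stranded custom Agilent array for 1 h at 25 °C, with 50 µM zinc acetate in the buffer, followed by washing.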
For “TAAAATTATTATATTTTATAAGAAAGGTAACAAGTAAACACGGAGTCACCTAGTGCAG”, the binding signal is 3370 fluorescence intensity (a.u.).

“GCAATTTATTAAATAATTATTATTTTGAAAACATCTTAGACGGAGTCACCTAGTGCAG”: the binding signal is 15100 fluorescence intensity (a.u.).

For the sequence “GCCAACAATTAATCAAGTAGTACACTCACATGGGTCCTTGCGGAGTCACCTAGTGCAG”, the binding signal is 9040 fluorescence intensity (a.u.).

Turning to “GCAATGCATCACTTGATTGGAGTACTGAATGGAATGCTGCCGGAGTCACCTAGTGCAG”, the binding signal is 17300 fluorescence intensity (a.u.).

Regarding “CGTGATTAGAATCCATCTCCGACCGACCGCACATACAAAGCGGAGTCACCTAGTGCAG”, the binding signal was 43300 fluorescence intensity (a.u.).

On to “CACTTAATTAACAGACAAGTGCTACTGGGGACAATGATAGCGGAGTCACCTAGTGCAG”, for which the binding signal is 34000 fluorescence intensity (a.u.).

As for “ACCCAAAATCAACTCAAATCAAATCTCCACTGCTTAAGAGCGGAGTCACCTAGTGCAG”, the binding signal was 5720 fluorescence intensity (a.u.).

As to “TATTAACCAATAGACAGATACACTATTACAGTGCCTTGTACGGAGTCACCTAGTGCAG”, the binding signal was 3700 fluorescence intensity (a.u.).

In the case of “CGATAAATTTGGCCGGAATTTATCAGCGTTAGGCACGGACCGGAGTCACCTAGTGCAG”, the binding signal was 13200 fluorescence intensity (a.u.).

Take “TAGGAACATGTCATAGATTGGAAGTTTACCCATTAGGAACCGGAGTCACCTAGTGCAG”: the binding signal was 6710 fluorescence intensity (a.u.).

As to “TTTGATTTAGGGAACTACCAGACTGGACTTTTCACCTTTTCGGAGTCACCTAGTGCAG”, the binding signal was 23700 fluorescence intensity (a.u.).

Consider “AGTATCAACCTAATAGTTAATGCACCAATTCAAAACTCGTCGGAGTCACCTAGTGCAG”, for which the binding signal was 3750 fluorescence intensity (a.u.).

As to “GTACAATTTTCATAATTTGCATAAATCGAAAAGAAAAGTGCGGAGTCACCTAGTGCAG”, the binding signal was 12400 fluorescence intensity (a.u.).

Turning to “AAATTGATATCGGATTAAACACGCTGATGAAATGTTCTTGCGGAGTCACCTAGTGCAG”, the binding signal was 6190 fluorescence intensity (a.u.).

For “GTGATTGGGCTATTTGTAATGTTCAGATGGTGAACTGTGCCGGAGTCACCTAGTGCAG”, the binding signal was 27600 fluorescence intensity (a.u.).

Regarding “TCATCATTACTGGATGACGAGCTAATGACGGATTTGCCATCGGAGTCACCTAGTGCAG”, the binding signal is 6820 fluorescence intensity (a.u.).

For the sequence “TCACAATTGGTTTGACTGGTCCTGAAGAGAAGAAGAGGCTCGGAGTCACCTAGTGCAG”, the binding signal is 10400 fluorescence intensity (a.u.).

Turning to “TCTTCCCTTGCTTAATTAATGGCCCAAATGCTGCTCGCCCCGGAGTCACCTAGTGCAG”, the binding signal was 3720 fluorescence intensity (a.u.).

Take “TTTCAATCAAACTTTCAATTTTAGTATGAAGTAAACACACCGGAGTCACCTAGTGCAG”: the binding signal is 30400 fluorescence intensity (a.u.).

Take “GCTGATGGGATTGAGATGAAATGAAATCAAAGGGAGCATGCGGAGTCACCTAGTGCAG”: the binding signal was 36500 fluorescence intensity (a.u.).

On to “ACTAAATTTCCTCCATTCGAAAGCAGAGCAAAGTTGGAGGCGGAGTCACCTAGTGCAG”, for which the binding signal was 4330 fluorescence intensity (a.u.).

For “GTTTGATCGAAATTTGGTAAATATCGCTGTACTTCAATTACGGAGTCACCTAGTGCAG”, the binding signal was 6010 fluorescence intensity (a.u.).

Take “GTGAAGATTATTTTAATCTTATTATTATTATTTTACGGTTCGGAGTCACCTAGTGCAG”: the binding signal is 5000 fluorescence intensity (a.u.).

For the sequence “AATTGAAAGACGAGGATTAATGAAAGGATTTCGCTGACTGCGGAGTCACCTAGTGCAG”, the binding signal was 3570 fluorescence intensity (a.u.).

Consider “CTCAATTTATTATGATATGTTGCATCAATGTTAAGTTTCACGGAGTCACCTAGTGCAG”, for which the binding signal was 3360 fluorescence intensity (a.u.).

As for “ACTTCGCTAATGATTATCATCCCCTCCTACCTCCCGAACACGGAGTCACCTAGTGCAG”, the binding signal was 16200 fluorescence intensity (a.u.).

On to “AATTTGATGTAAATTATCTATGATTTTAGTGCATAAACTTCGGAGTCACCTAGTGCAG”, for which the binding signal was 29500 fluorescence intensity (a.u.).

For the sequence “AACCGATTCCAATCATTTAACCAAACCCATGCTTATGCGACGGAGTCACCTAGTGCAG”, the binding signal is 16100 fluorescence intensity (a.u.).

As for “GAGATCGATTGATCGAATCGAAGAAACCCCAAACCCCACCCGGAGTCACCTAGTGCAG”, the binding signal was 5620 fluorescence intensity (a.u.).

For the sequence “AAAACATGAAATAAATTAAAGAAAATAGTCCTATATAGGCCGGAGTCACCTAGTGCAG”, the binding signal is 4540 fluorescence intensity (a.u.).

Take “GGGGACCTGTAATTGTGATACTGTAAACATTAACCTTTACCGGAGTCACCTAGTGCAG”: the binding signal is 3980 fluorescence intensity (a.u.).

For the sequence “ATCGCAAATTACAAGTGGTATATAGTACTACAAACGTATCCGGAGTCACCTAGTGCAG”, the binding signal was 3370 fluorescence intensity (a.u.).

Consider “GAAAATTATATAATGTTCTGTCACTGAAGTACTACCAATTCGGAGTCACCTAGTGCAG”, for which the binding signal was 11600 fluorescence intensity (a.u.).

On to “CCATGTAGCCAATCATGTATGGAAGAATGAAGAGTCATGCCGGAGTCACCTAGTGCAG”, for which the binding signal is 8500 fluorescence intensity (a.u.).

Regarding “ATTCGATTGAAGTTTTATAGGTTTTCAATGGTAGTGCACCCGGAGTCACCTAGTGCAG”, the binding signal is 9030 fluorescence intensity (a.u.).

For the sequence “TGCCCTAATTTCTTATTTGGTGTACGGTTGTAATGGTGTACGGAGTCACCTAGTGCAG”, the binding signal was 6180 fluorescence intensity (a.u.).

“CACACTTCTTAATTGCCCTCCTGCATTATGTTTGTTGATCCGGAGTCACCTAGTGCAG”: the binding signal is 5770 fluorescence intensity (a.u.).

Regarding “GGAAATTAACTGTATCAAGCACATGGTAATTATTTGATTACGGAGTCACCTAGTGCAG”, the binding signal was 17900 fluorescence intensity (a.u.).

As for “AACATTGATGAGAATTGAAATCATTTCGTTGCTCTAATCTCGGAGTCACCTAGTGCAG”, the binding signal is 13400 fluorescence intensity (a.u.).

On to “CCGTCAATATTTATTTAATAGATTAGATGAGATAAGAGGACGGAGTCACCTAGTGCAG”, for which the binding signal was 8100 fluorescence intensity (a.u.).

For the sequence “ACATTTCTCTCAATCTCTTAACTATCCCACTAGTACTCCACGGAGTCACCTAGTGCAG”, the binding signal was 3240 fluorescence intensity (a.u.).

On to “AATGAGTGATTAATAAAGCATTCTCTTCCAAAGGAAATGTCGGAGTCACCTAGTGCAG”, for which the binding signal was 23700 fluorescence intensity (a.u.).
